Some of the results follow. Measured with an extract: partners may take part in the binding.

Binding signal data for seven sequences are collected here from publication PMC6451091.

This experiment has as its target T1, FLI1 (endogenous, THP-1 nuclear extract) (UniProt Q01543).
T1 sequence: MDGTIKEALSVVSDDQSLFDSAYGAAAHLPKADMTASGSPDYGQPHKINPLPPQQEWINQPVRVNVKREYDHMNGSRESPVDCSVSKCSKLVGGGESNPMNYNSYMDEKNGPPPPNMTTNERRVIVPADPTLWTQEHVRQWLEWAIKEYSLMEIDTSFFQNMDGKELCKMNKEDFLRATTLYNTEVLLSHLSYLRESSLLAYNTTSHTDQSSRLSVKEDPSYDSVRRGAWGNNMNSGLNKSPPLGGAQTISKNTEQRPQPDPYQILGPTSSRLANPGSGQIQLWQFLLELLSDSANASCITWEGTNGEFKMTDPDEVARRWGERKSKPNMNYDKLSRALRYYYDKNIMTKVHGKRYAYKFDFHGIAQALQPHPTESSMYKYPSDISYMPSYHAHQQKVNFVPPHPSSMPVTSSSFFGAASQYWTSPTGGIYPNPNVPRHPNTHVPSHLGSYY
Briefly: nuclear extract protein-binding microarray (nextPBM). Conditions: 20 mM HEPES pH 7.9, 100 mM NaCl, 1 mM DTT, 0.2 mg/mL BSA, 0.02% Triton X-100, 2% milk, 0.4 mg/mL salmon testes DNA; 1 h; temperature not stated; high values mean tight binding; double strand, one strand shown; sequences stand for … in GCCTAGCAC…GTGCTAGGTCTTGATTCGCTTGACGCTGCTG
As to TTTTTGAGGAACTGCCAAAT, the binding signal was found to be 1.11 z-score.

On to CAAAAAGGGGAGTGGATGCT, for which the binding signal amounted to 0.139 z-score.

CCTAAGAGGAAGTGGAAAGC: the binding signal amounted to 2.89 z-score.

Regarding TGAAAGAGGAAGCGCAACCA, the binding signal turned out to be 2.46 z-score.

GATAAGAGGAAGTCCGCTGT displayed a binding signal of 2.82 z-score.

AGGAAGGGGAAGTGGAAGAG returned a binding signal of 3.28 z-score.

Consider GGAAAGAGGAACTGACAACA, for which the binding signal is 2.63 z-score.
